Results are given in words; binding and its absence hold for the method and conditions named. For some assays here: Binding seen in cells or lysates may run through a third protein. Some results given as binding are weak or reduced against the parent protein; the word gives no strength. For some assays here: Sequences can lack the tags named with a protein.
T1: GST-LDZIP, leucine zipper domain of human RanBP2 (residues 447-483) fused to GST (human) (UniProt P49792)
T1 sequence: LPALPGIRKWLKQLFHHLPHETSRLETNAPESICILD

B1: Murine Cox11, two-hybrid construct (intact/complete Cox11) (protein, UniProt Q6P8I6 1-275)
chain: MGGLWCPGWRLVASCGRGWRQPGWSGRTVVNAELVLRPGWDGLGGAERGLRRLGTWKRPCGVRGPATQPPRRPRSSNPFQRAQEDEWRRRNKTVLTYVAAAAVGMLGASYAAVPLYRLYCQTTGLGGSAVAGHSSDQIENMVPVKDRVIKVTFNADVHASLQWNFRPQQTEIYVVPGETALAFYKAKNPTDKPVIGISTYNVVPFEAGQYFNKIQCFCFEEQRLNPQEEVDMPVFFYIDPEFAEDPRMVNVDLITLSYTFFEAKEGHKLPVPGYN
B2: Cox11, endogenous in retinal and other tissue extracts (protein, UniProt Q6P8I6 75-275)
chain: SSNPFQRAQEDEWRRRNKTVLTYVAAAAVGMLGASYAAVPLYRLYCQTTGLGGSAVAGHSSDQIENMVPVKDRVIKVTFNADVHASLQWNFRPQQTEIYVVPGETALAFYKAKNPTDKPVIGISTYNVVPFEAGQYFNKIQCFCFEEQRLNPQEEVDMPVFFYIDPEFAEDPRMVNVDLITLSYTFFEAKEGHKLPVPGYN
B3: Cox11-C, mitochondrial intermembrane domain of murine Cox11, two-hybrid construct (domain or fragment, UniProt Q6P8I6 117-275)
chain: RLYCQTTGLGGSAVAGHSSDQIENMVPVKDRVIKVTFNADVHASLQWNFRPQQTEIYVVPGETALAFYKAKNPTDKPVIGISTYNVVPFEAGQYFNKIQCFCFEEQRLNPQEEVDMPVFFYIDPEFAEDPRMVNVDLITLSYTFFEAKEGHKLPVPGYN

Assays:
[1] = target: Leucine-rich domain (LD) of human RanBP2 (residues 62-711), GAL4 DNA-binding domain bait (human) (UniProt P49792); test: two-hybrid; GAL4 system; LD and its subdomains as GAL4 DNA-binding domain baits (pBUTE, HybriZAP pBD-GAL4); screens of murine embryo and brain and bovine retinal cDNA libraries; interactions quantified by liquid beta-galactosidase and growth assays
[2] = target: GST-LD, leucine-rich domain of RanBP2 fused to glutathione S-transferase (human) (UniProt P49792); test: pull-down; GST-fused proteins (0.5-2.2 uM) with CHAPS-solubilized retinal extracts; co-precipitates analysed by Western blot; only the target purified
[3] = target: T1, GST-LDZIP, leucine zipper domain of human RanBP2 (residues 447-483) fused to GST (human); test: as above
[4] = target: GST-LD, leucine-rich domain of RanBP2 fused to glutathione S-transferase (human) (UniProt P49792); test: pull-down; GST-JX2 (2.2 uM) incubated with extracts (~2.0 mg) of seven different tissues; Western blot against HKI and Cox11; only the target purified

Binder	binding [1]	binding [2]	binding [3]	binding [4]
B1	binds	–	–	–
B2	–	binds	no binding (tested: 0.5–2.2 μM of GST-fused proteins)	binds
B3	binds	–	–	–
